According to PubChem BioAssay AID1345082 (National Center for Advancing Translational Sciences (NCATS), 2018):
Several values for one entry are separate records, joined by “and”; a condition that tells them apart may be missing. Equal entries are not always repeated. Out of some 94,000 compounds screened, about 4,000 (4.3%) were called active. Inconclusive means that the source gave no clear call. Such entries were picked first, then a sample of the others. Calls come from the whole dose curve; as a rule, active = well fitted inhibition curve with a large enough effect; inconclusive = small, poorly fitted or top-dose-only effect; inactive = no such curve, though single readings can be large or run the other way. Potencies of inconclusive entries are doubtful fits and often do not repeat.

Experiment: Cytotoxic Profiling in NIH 3T3 Cell Line of Diverse Libraries Using Quantitative High-Throughput Screening; note: nearly all actives have a fitted effect of over 55% in size
Details: NIH 3T3 viability, CellTiter-Glo ATP luminescence, 48-72 h; series mostly up to 96.7 µM
In short: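 Cytotoxicity is measured as loss of cellular ATP: NIH 3T3 cells (400/well) are exposed to compound for 48 or 72 hr at 37 °C, then CellTiter-Glo luminescence is imaged after 10 min at room temperature.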
Potency is the fitted concentration of half-maximal effect; tags give direction and shape of the fitted curve.

Compound | Potency
Cc1ccc([S+](=O)([O-])c2nnn3c2nc(N2CCC(F)CC2)c2ccccc23)cc1 | inconclusive: 56.2 µM [inhibitor, partial curve, poor fit]
CC(=O)N1CCC(C(=O)N2CCC(c3nc4ncccc4[nH]3)C2)CC1 (stereo not given) | inactive
COc1ccc(-c2nnc(C[C@@H]3C[C@@H](C(C)C)[C@H](CNCc4ccncc4)C=C3C)o2)cc1 | inconclusive: 79.4 µM [inhibitor, partial curve, poor fit]
COCCCn1c(=O)c(C(=O)NCC(=O)OC)nc2cccnc21 | inactive
Cn1c(=O)c2ccnn2c2ccc(C(=O)NCC3CCN(Cc4ccccc4F)CC3)cc21 | inconclusive: 39.8 µM [inhibitor, partial curve, poor fit]
CC(C)c1noc(-c2cn(C3CCN(C(=O)c4ccc(OC(F)(F)F)cc4)C3)nn2)n1 (stereo not given) | inconclusive: 6.31 µM [inhibitor, full curve, poor fit]
Cc1ccc2c(C)c(C(=O)N3C[C@@H](CN4CCC(O)CC4)[C@@H](CO)C3)oc2c1 | inactive
O=C(c1ccc2c(c1)OCO2)N1CCC2(CC1)COc1ccccc1NC2=O | inactive
O=C(NC1CCCCC1)N1CCc2nnc(C3CC3)n2CC1 | inactive
COc1ccc(-c2noc([C@@H]3CCCN3C(=O)c3ccc(F)cc3)n2)cc1OC | inconclusive: 50.1 µM [inhibitor, single point]
O=C(CCc1ccccc1)NCCC1CCN(C(=O)Nc2cc(F)cc(F)c2)CC1 | inactive
CN(C)c1ncc2c(n1)C(C)(C(=O)NCCOc1ccccc1)CCC2 (stereo not given) | inconclusive: 100 µM [inhibitor, partial curve]
CC(=O)Nc1ccc(CN2CC(N(C)c3ccccc3C)C2)cc1 | inconclusive: 70.8 µM [inhibitor, partial curve]
COc1ccc(-c2nnc(C[C@@H]3C[C@@H](C(C)C)[C@H](CNCc4ccco4)C=C3C)o2)cc1 | inconclusive: 44.7 µM [inhibitor, partial curve, poor fit]
COCC(=O)NC[C@H]1O[C@H](Cc2cc(-c3ccc(F)cc3)on2)CC[C@@H]1O | inactive
O=C(NC1CCCN(c2cc(-c3ccc(F)cc3)[nH]n2)C1)c1ccccn1 (stereo not given) | inconclusive: 70.8 µM [inhibitor, single point]
C#CCNC(=O)c1cn2cc(-c3ccc(C)cc3)sc2n1 | inactive
O=C1Cc2c(-c3ccc(Oc4ccccc4)cc3)n[nH]c2CN1CCc1ccncc1 | inconclusive: 100 µM [inhibitor, partial curve]
O=C(NC1CCN(c2ccc3nnc(C4CC4)n3n2)CC1)C1CCCCC1 | inconclusive: 70.8 µM [inhibitor, single point]
CC(C)(C)OC(=O)N1CC(Nc2cccc(C(F)(F)F)c2)C1 | inconclusive: 79.4 µM [inhibitor, partial curve, poor fit]
O=C(C1CCOCC1)N1CC2CC(C1)[C@H]1CCCC(=O)N1C2 (stereo not given in full) | inactive
Cc1cc(=O)n(CC(=O)Nc2ccc(F)c(Cl)c2)c(N2CCOCC2)n1 | inactive

Compound | Potency
CCOc1ccc(-c2cc3c(=O)n(CCNC(=O)Cc4cccs4)ccn3n2)cc1 | inactive
O=C1CCN(C(=O)c2ccoc2)CCCCCCN1 | inactive
CC(C)N1CCN(C2CCOC3(CCN(S(=O)(=O)c4ccccc4)CC3)C2)CC1 (stereo not given) | inactive
O=C(NCCc1noc(C2CC2)n1)c1cccs1 | inactive
COc1cccc(C(=O)N2CCC(Cc3noc(-c4ccccc4)n3)C2)c1 (stereo not given) | inconclusive: 44.7 µM [inhibitor, partial curve, poor fit]
COc1cccc(-c2ccc(C(=O)NCCNC(=O)c3cccc(Cl)c3)cc2)c1 | inconclusive: 56.2 µM [inhibitor, partial curve, poor fit]
COc1cncc(Nc2ncc(-c3ccccc3OC)c3c2OCC3)c1 | active: 70.8 µM
COc1cccc(C(=O)N2CCC(N3C[C@H](O)C[C@H]3C(=O)Nc3ccc(F)cc3)CC2)c1 | inactive
CN(Cc1nc(-c2ccccc2)no1)CC1(O)CNCCOC1 (stereo not given) | inactive
O=C(NC1CCN(c2cc(-c3ccc(F)cc3)[nH]n2)C1)c1ccc2c(c1)OCO2 (stereo not given) | inconclusive: 50.1 µM [inhibitor, partial curve, poor fit]
CCCCCC(=O)N1C[C@@H](C(=O)OCC)[C@@H]2Oc3ccccc3[C@@H]21 | inconclusive: 50.1 µM [inhibitor, partial curve, poor fit]
Cc1nn(C(=O)CCC(=O)N2CCC(CCOc3ccccc3)C2)c2ccccc12 (stereo not given) | inconclusive: 50.1 µM [inhibitor, partial curve, poor fit]
CCCn1cc(-c2ccncc2)cc1C(=O)N1CCN(c2ccccc2F)CC1 | inconclusive: 44.7 µM [inhibitor, partial curve, poor fit]
CCCCOC(=O)c1ccc(NC(=O)c2c(OC)cc(=O)n3c2CCCC3)cc1 | inactive
Cc1ccccc1-c1[nH]nc2ncc(-c3ccnn3C)nc12 | inconclusive: 31.6 µM [inhibitor, partial curve, poor fit]
Oc1ccc(-c2nc(C3CC3)nc3c2CCN(Cc2ccccc2C(F)(F)F)CC3)cc1 | active: 31.6 µM
CC(C)CNC(=O)c1ccc(-c2nnc3ccc(NC(=O)C4CC4)cn23)cc1 | inactive
COc1ccc(-c2nn(-c3ccc(F)cc3)c(OC(C)=O)c2-c2ccc(NC(C)=O)cc2)cc1OC | inconclusive: 56.2 µM [inhibitor, partial curve, poor fit]
CCOc1ccc(CC(=O)N2CCC3(CC2)C(=O)N(C)c2ccccc23)cc1 | inconclusive: 56.2 µM [inhibitor, partial curve, poor fit]
CCCc1ccc(S(=O)(=O)NC2CCN(c3ccc(=O)n(CC4CC4)n3)CC2)cc1 | inconclusive: 35.5 µM [inhibitor, partial curve, poor fit]
O=C1CCN(C(=O)c2cccs2)CCCCCCN1 | inactive
COc1cc(NC(=O)Cn2c(Nc3cc(C)cc(C)c3)nc(C)cc2=O)cc(OC)c1OC | inconclusive: 50.1 µM [inhibitor, partial curve, poor fit]

Compound | Potency
CCc1ccc(S(=O)(=O)N2CC(C(=O)NC3CCCCC3)C3(CCOCC3)C2)cc1 (stereo not given) | inconclusive: 50.1 µM [inhibitor, partial curve, poor fit]
Cn1c(CCNC(=O)CCc2ccc3c(c2)CN(C(=O)C2CC2)CCO3)nc2ccccc21 | inconclusive: 50.1 µM [inhibitor, partial curve, poor fit]
COCC(=O)N1CCc2nc(C3CC3)nc(-c3ccc(Cl)cc3)c2C1 | inactive
Cc1ccccc1C(=O)N1CCC(N2C(=O)c3c(c(C)nn3-c3ccccc3)C2C(C)C)C1 (stereo not given) | inconclusive: 50.1 µM [inhibitor, partial curve, poor fit]
CCC(C(=O)N1CCN(c2cc(-c3cccs3)[nH]n2)CC1)c1ccccc1 (stereo not given) | inconclusive: 28.2 µM [inhibitor, full curve]
CCN(CC)C(=O)CCc1c(C)nn(-c2ccc(F)cc2)c1Oc1ccccc1F | inconclusive: 50.1 µM [inhibitor, partial curve, poor fit]
CC1=C[C@@H](CN2CCC(C(N)=O)CC2)[C@H](C(C)C)C[C@H]1Cc1nnc(-c2ccc(N(C)C)cc2)o1 | active: 35.5 µM
O=C(NC1CCCCC1)c1ccc2nnc(C3CCCC3)n2c1 | inconclusive: 79.4 µM [inhibitor, partial curve, poor fit]
O=C(c1cc2ccccc2[nH]1)N1C[C@@H](CO)[C@H](c2nc(C3CC3)no2)C1 | inconclusive: 35.5 µM [inhibitor, partial curve, poor fit]
O=C(Nc1ccc(F)cc1F)N1CCOc2ccc(CN3CCc4ccccc4C3)cc2C1 | inconclusive: 31.6 µM [inhibitor, partial curve, poor fit]
O=[S+]([O-])(NC1CCN(Cc2cccc(-c3cccs3)c2)CC1)c1cccs1 | inconclusive: 50.1 µM [inhibitor, partial curve, poor fit] and inconclusive: 44.7 µM [inhibitor, partial curve, poor fit]
O=C(NCCc1ccccc1F)c1ccc2nnc(-c3ccc(Cl)cc3)n2c1 | inconclusive: 44.7 µM [inhibitor, partial curve, poor fit]
COc1cccc(-c2ccc(CN3CCCC(NC(=O)c4cccc(Cl)c4)C3)cc2)c1 (stereo not given) | active: 31.6 µM
COc1ccc(-c2cnc3[nH]cc(CC(=O)NCc4cccnc4)c3c2)cc1OC | active: 15.8 µM
COc1ccc(-c2noc([C@@H]3C[C@H](NS(=O)(=O)c4ccc(C)cc4)CN3C)n2)cc1 | inconclusive: 56.2 µM [inhibitor, partial curve, poor fit]
O=[S+]([O-])(c1cccc(C(F)(F)F)c1)N1CCCN(c2ccnc3ccnn23)CC1 | inconclusive: 44.7 µM [inhibitor, partial curve, poor fit]
Cc1ccc(C(=O)NCCc2noc(-c3ccncc3)n2)cn1 | inactive
CC(C)c1noc(CC2CCN(C(=O)c3ccc4c(c3)OCO4)CC2)n1 | inconclusive: 35.5 µM [inhibitor, partial curve, poor fit]
CCC(=O)N1CCC(Cn2c(C)cnc2C2CC2)CC1 | inactive
COCCN1C(=O)CCc2cc(NC(=O)c3ccc(F)cc3Cl)ccc21 | inactive
CC(C)c1ccc(CN2C[C@@H]3[C@H](C2)N(CCOc2ccccc2)C(=O)C(C)(C)[S+]3(=O)[O-])cc1 | inconclusive: 50.1 µM [inhibitor, partial curve, poor fit]
